Assay results taken from publication PMC7819943, “Rice protein-binding microarrays: a tool to detect cis-acting elements near promoter regions in rice”.
The list shows a part of the results.

Target: T1, OsWOX13 (Oryza sativa, UniProt Q5QMM3 1-267)
T1 sequence: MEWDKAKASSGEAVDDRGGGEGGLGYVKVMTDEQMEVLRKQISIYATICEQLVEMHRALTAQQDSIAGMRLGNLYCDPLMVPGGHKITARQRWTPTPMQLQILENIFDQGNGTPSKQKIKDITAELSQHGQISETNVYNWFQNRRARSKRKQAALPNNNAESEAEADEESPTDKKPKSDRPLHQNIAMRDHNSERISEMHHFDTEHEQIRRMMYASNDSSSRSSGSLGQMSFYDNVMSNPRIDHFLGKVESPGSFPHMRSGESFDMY
Test: protein-binding microarray (RPBM); PBS, 2% BSA, 51.3 ng/ul salmon testes DNA, 50 uM zinc acetate, 200 nM TF, 25 C, 1 h; high values mean tight binding
Settings: protein: recombinant; tags: N-terminal polyhistidine and DsRed monomer fusion (pET32a); label: CyDye5-dUTP incorporated in the synthesized complementary strand; 3' TTTTT single-stranded linker to array surface; dsDNA, one strand shown
Outline: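 Per-feature fluorescence intensity (arbitrary units), read on an Axon 4000B scanner, is the binding signal. Transcription factors carrying an N-terminal polyhistidine tag and DsRed fusion were expressed in E. coli BL21-CodonPlus and purified on Ni–NTA. A custom Agilent array, made double-stranded by primer extension with Cy5-dUTP and blocked with 2% BSA, was incubated with 200 nM protein in PBS, 2% BSA, salmon testes DNA and 50 µM zinc acetate at 25 °C for 1 h and then washed.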

| Sequence | binding signal |
| --- | --- |
| AAACATTAATTTATTCGTCTTCCGTAGACTGCAATAGTCGCGGAGTCACCTAGTGCAG | 29400 fluorescence intensity (a.u.) |
| GATATGACTGAAAAGTTATGTGTGTATGACAGGTTGATGTCGGAGTCACCTAGTGCAG | 6990 fluorescence intensity (a.u.) |
| AAAATGATTTATCCACCTCACTAGAAATTTCTCTCTTAAACGGAGTCACCTAGTGCAG | 7700 fluorescence intensity (a.u.) |
| GTGTAAATTAAATTGTTCCAACTAATTTTATTTACAGATGCGGAGTCACCTAGTGCAG | 33700 fluorescence intensity (a.u.) |
| CAGTGATTGATTCGTAACTAATAAATCGAACTACTGCGCGCGGAGTCACCTAGTGCAG | 40800 fluorescence intensity (a.u.) |
| GTGCAATTAGTGATATATATCACCAATAACTACTACAAGCCGGAGTCACCTAGTGCAG | 12500 fluorescence intensity (a.u.) |
| CTTAACTAAATTTGAGTATATGGTAGTTTCACATTGACATCGGAGTCACCTAGTGCAG | 28400 fluorescence intensity (a.u.) |
| CTCCCGTCTCGGCCAATCATAGCGCGCCATTTCCATCCCACGGAGTCACCTAGTGCAG | 7140 fluorescence intensity (a.u.) |
| CAATGATTGGTACCGGACCTGATCCCGTCGTAATCAGCGGCGGAGTCACCTAGTGCAG | 51800 fluorescence intensity (a.u.) |
| CAGTTCAATCAAACGGTCATTCCCGTGTTTTCCTGCGTTTCGGAGTCACCTAGTGCAG | 12900 fluorescence intensity (a.u.) |
| TCAAATTGGTACAACAGCGACCTTCACAGAACTTGGGAAACGGAGTCACCTAGTGCAG | 8760 fluorescence intensity (a.u.) |
| ATCAAATTATGCTCATTGGGGAAGGGAGAATCATGGAGATCGGAGTCACCTAGTGCAG | 8890 fluorescence intensity (a.u.) |
| GGTCAAATTAAGTTGAATACCGGTAAACATTGGTGATACACGGAGTCACCTAGTGCAG | 4480 fluorescence intensity (a.u.) |
| ACCCTATGACTAATGTGATTTGGTCCCAAAGTTTGCCCTCCGGAGTCACCTAGTGCAG | 12800 fluorescence intensity (a.u.) |
| CTTTTAATTACTCCGATTTCGTAGCGCATATCGACTCTCCCGGAGTCACCTAGTGCAG | 7460 fluorescence intensity (a.u.) |
| AGCCAGTTAATTATGACATCACAACCCATCTAAACACATACGGAGTCACCTAGTGCAG | 18900 fluorescence intensity (a.u.) |
| TTCTAATTAATCACGCGTTAATGGACCGCTCCGTTTTCCGCGGAGTCACCTAGTGCAG | 42300 fluorescence intensity (a.u.) |
| AGCCTCCTAATTGGGGTTTGTTGACGAAAAGCGCATCCTTCGGAGTCACCTAGTGCAG | 10600 fluorescence intensity (a.u.) |
| TCCTATATGATTATTAACACAACCCAAATATCCAATCCATCGGAGTCACCTAGTGCAG | 11000 fluorescence intensity (a.u.) |
| TATAAATTGATGAGTGACTACCAGGATATACATTCAACAACGGAGTCACCTAGTGCAG | 39300 fluorescence intensity (a.u.) |
| GTTTTATGATAAGTACTGATTAATTCTCGCGTTTCATTATCGGAGTCACCTAGTGCAG | 8030 fluorescence intensity (a.u.) |

| Sequence | binding signal |
| --- | --- |
| GAACTTAATTATCTACCACTTGCTGGGTAGCTAGTGAGCGCGGAGTCACCTAGTGCAG | 29600 fluorescence intensity (a.u.) |
| GGGTGGGGTGGGCCTGGGCTGATGCATGTTTGGCGCTTAGCGGAGTCACCTAGTGCAG | 4520 fluorescence intensity (a.u.) |
| AACACGTATTAATTAATTAGACACTGGAAATCGTTCTGCACGGAGTCACCTAGTGCAG | 38000 fluorescence intensity (a.u.) |
| TAATTCTAATTGTTATAAAATGTTACTCCCTCCGTATTTTCGGAGTCACCTAGTGCAG | 6460 fluorescence intensity (a.u.) |
| ATATATATGATTGGTACATACAGCCATACACAGGACACCCCGGAGTCACCTAGTGCAG | 25800 fluorescence intensity (a.u.) |
| CATAAATCTGATTGGAGTGTGGAAAATCGTGCATTTAAATCGGAGTCACCTAGTGCAG | 18800 fluorescence intensity (a.u.) |
| TTCAGAAATGCTGGAAGATGATTGAGGAAATCAGGAAATTCGGAGTCACCTAGTGCAG | 5150 fluorescence intensity (a.u.) |
| GGAGATTACAGGCCTGAATACATGCACAATGATTTTCTCTCGGAGTCACCTAGTGCAG | 3730 fluorescence intensity (a.u.) |
| TTTTGTGTAATTGGCTGTGGACACTCGAGACAATATCTTACGGAGTCACCTAGTGCAG | 13300 fluorescence intensity (a.u.) |
| AATTATTTGTTCTGTATTGTTTTGTTTTACTATATCTTCTCGGAGTCACCTAGTGCAG | 3310 fluorescence intensity (a.u.) |
| ACTAATTTAGTATTATAAATATTACTATATTTGTCTATAACGGAGTCACCTAGTGCAG | 16400 fluorescence intensity (a.u.) |
| CAATGAACTAATATAACAGGTCAATTAATCCGCCATAGATCGGAGTCACCTAGTGCAG | 3700 fluorescence intensity (a.u.) |
| AAGATTAGGTTGACAGTAAAAGAATGTGGTTCTGACAGGCCGGAGTCACCTAGTGCAG | 6350 fluorescence intensity (a.u.) |
| CTAGTCGTTAATTAGCAATTTCATGACAATCCTGGACGGACGGAGTCACCTAGTGCAG | 39700 fluorescence intensity (a.u.) |
| GCATAATTGGAAGTCTAAACACCCATAAATTTCTGCCTCCCGGAGTCACCTAGTGCAG | 45200 fluorescence intensity (a.u.) |
| TGGGAATAATTAGTTAATCCTTTCCAGCAACTTTAAATCACGGAGTCACCTAGTGCAG | 5320 fluorescence intensity (a.u.) |
| GCTAATTGCCAAAGCAGCCACATGGATTGACATAGCTTCTCGGAGTCACCTAGTGCAG | 36800 fluorescence intensity (a.u.) |
| ACCTAACCCCACCCAATCACCCCAACCGAACCCCGCACGGCGGAGTCACCTAGTGCAG | 3460 fluorescence intensity (a.u.) |
| GATAATGGCGCATCAGACATGGAAGAATATGTAGCGTTTGCGGAGTCACCTAGTGCAG | 3260 fluorescence intensity (a.u.) |
| ATCCAATCATACTCCAAGATCTGAAGAGAAGGAGGGATTGCGGAGTCACCTAGTGCAG | 11900 fluorescence intensity (a.u.) |
| TGTTAAATTATATCTAAGGAAACCGGTTTTGATTTCCTTCCGGAGTCACCTAGTGCAG | 11100 fluorescence intensity (a.u.) |
